# In article PMC4336329 (PLoS ONE, 2015):
# Hit rate of the full screen: of about 310,000 compounds, about 14,000 (4.5%) showed an effect of 50% or more. Effects have a minus sign here. This is one part of the list.
# Target: human ether-à-go-go-related gene (hERG) potassium channel (human, UniProt Q12809)
# Assay: primary screen, population patch clamp on CHO cells stably expressing hERG
# 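Further: peak tail current of the secondary pulse compared with the same well before compound.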
# Chain of human ether-à-go-go-related gene (hERG) potassium channel (Q12809 whole entry, looked up): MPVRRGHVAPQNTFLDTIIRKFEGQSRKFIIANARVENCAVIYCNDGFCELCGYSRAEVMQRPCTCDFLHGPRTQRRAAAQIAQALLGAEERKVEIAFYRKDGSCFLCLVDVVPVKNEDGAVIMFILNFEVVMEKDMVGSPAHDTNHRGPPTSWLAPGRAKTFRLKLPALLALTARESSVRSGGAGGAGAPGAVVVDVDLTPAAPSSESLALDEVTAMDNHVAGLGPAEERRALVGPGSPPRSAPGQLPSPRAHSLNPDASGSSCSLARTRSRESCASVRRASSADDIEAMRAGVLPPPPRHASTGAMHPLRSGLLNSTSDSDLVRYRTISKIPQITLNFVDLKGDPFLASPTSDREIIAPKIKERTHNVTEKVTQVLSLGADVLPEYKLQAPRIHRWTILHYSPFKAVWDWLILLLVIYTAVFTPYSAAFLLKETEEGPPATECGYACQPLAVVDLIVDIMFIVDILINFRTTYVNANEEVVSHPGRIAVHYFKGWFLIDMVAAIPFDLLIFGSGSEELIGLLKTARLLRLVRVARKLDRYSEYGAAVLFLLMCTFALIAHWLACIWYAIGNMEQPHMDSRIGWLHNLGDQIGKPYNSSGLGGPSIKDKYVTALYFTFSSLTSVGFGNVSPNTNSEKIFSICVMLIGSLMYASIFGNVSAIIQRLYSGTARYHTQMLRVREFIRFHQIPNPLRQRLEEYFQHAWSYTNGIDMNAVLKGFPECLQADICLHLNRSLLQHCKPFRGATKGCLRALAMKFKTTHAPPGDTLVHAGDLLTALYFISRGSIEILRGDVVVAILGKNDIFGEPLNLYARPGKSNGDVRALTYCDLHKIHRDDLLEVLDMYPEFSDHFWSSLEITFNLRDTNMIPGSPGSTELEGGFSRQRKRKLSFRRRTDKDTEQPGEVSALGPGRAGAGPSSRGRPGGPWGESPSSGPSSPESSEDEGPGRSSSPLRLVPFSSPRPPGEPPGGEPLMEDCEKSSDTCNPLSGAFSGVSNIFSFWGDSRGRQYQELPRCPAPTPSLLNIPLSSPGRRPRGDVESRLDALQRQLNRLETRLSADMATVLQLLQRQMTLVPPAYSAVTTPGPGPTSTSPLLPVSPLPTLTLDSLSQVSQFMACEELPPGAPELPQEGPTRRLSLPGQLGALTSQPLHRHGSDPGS
row,SMILES,"hERG current change (%, negative = inhibition) at 10uM [%]"
1,COc1ccc2nc(NNC(=O)c3cc(=O)c4ccccc4o3)sc2c1,3.29
2,CN(C)CCNc1ncnc2c1sc1nc(N3CCCC3)c3c(c12)CC(C)(C)OC3,-20.4
3,c1ccc2c(N3CCCCC3)nc(N3CCCCC3)nc2c1,-39.1
4,NC(=O)NCCN1CCN(c2ncc(C(F)(F)F)cc2Cl)CC1,-33.7
5,CC(C)C(=O)NCCc1nc2ccccc2n1C,1.06
6,CC(C)N(C(=O)COC(=O)c1ccc([N+](=O)[O-])cc1)c1ccccc1,-0.436
7,CN1C(=S)SC(N2OC3C(=O)N(c4ccccc4)C(=O)C3C2c2ccccc2)C1(C)C (centres unmarked),5.6
8,COc1ccc(OC)c(/C=N/NC(=O)CCc2ccc(O)c(O)c2)c1,-0.886
9,CCOC(=O)Cn1nc(NC(=O)c2ccc3c(c2)OCO3)cc1C,11.2
10,CCOC(=O)C(=N/O)/C(C)=N/NC(=O)C(=O)Nc1cc(Cl)ccc1Cl,2.42
11,COc1cc(OC)cc(-c2cn[nH]c2N)c1,-25.7
12,Cc1cccc(NC(=O)CNC(=O)COc2cccnc2[N+](=O)[O-])c1C,14.4
13,CC1CCN(S(=O)(=O)c2cn(CC(=O)Nc3ccc(OC(F)(F)F)cc3)cn2)CC1,14.2
14,CN=C(Nc1cc(C)nn1-c1ccccc1)c1ccccc1,0.527
15,O=C(NCC1CCCO1)c1cc(Br)c(Br)s1 (centres unmarked),-6.15
16,O=C(COC(=O)CCS(=O)(=O)c1ccc(F)cc1)NC1CCCCC1,-8.98
17,O=C(CSCC(=O)Nc1ccc2ccccc2c1)NCc1ccccc1,6.58
18,CN1CCN(Cc2c(F)cccc2Cl)CC1,12.5
19,COCCCNC(=O)C(=O)N/N=C/c1cc2c(cc1Br)OCO2,-33.7
20,Cc1ccccc1C(=O)N1CCN(c2ccc(NC(=S)NC(=O)c3ccco3)cc2)CC1,-29.5
21,c1ccc2cc(CC3=NCCN3)ccc2c1,13.9
22,CN1c2ccccc2C(O)=C(C(=S)Nc2ccccc2)S1(=O)=O,22.7

row,SMILES,"hERG current change (%, negative = inhibition) at 10uM [%]"
1,CCOC(=O)C1Nc2ccc(C(F)(F)F)cc2C2c3ccccc3CC12 (centres unmarked),9.28
2,N#Cc1nc(COc2ccc(Br)cc2)oc1N1CCCC1,-12
3,COc1ccc(S(=O)(=O)Nc2nc3c(s2)C(=O)CC(C)(C)C3)cc1,-10.3
4,CCCOc1ccc(-c2nc(C#N)c(N3CCN(CC)CC3)o2)cc1,-12.9
5,Cc1cccc(-c2nc(CN3CCCC(C(=O)NC4CCCC4)C3)c(C)o2)c1 (centres unmarked),-76.3
6,COCCn1c(SCC(=O)Nc2ccc(Cl)cn2)nc2ccccc21,-32.1
7,CCC(CC)C(=O)Nc1cccc(C(=O)Nc2nccs2)c1,12.3
8,CC(=O)NC1=NN(C(C)=O)C(c2ccco2)S1 (centres unmarked),17.2
9,CS(=O)(=O)N1CCCC(C(=O)NCc2ccc(F)cc2)C1 (centres unmarked),-12.5
10,Cc1ccccc1C(=O)Nc1cccc(NC(=O)c2ncn[nH]2)c1,19.5
11,COc1ccc(NC(=O)CSCC(=O)Nc2ccccc2N2CCCC2)cc1,-7.76
12,Cc1ccc2nc(NCC(N)=O)nc(-c3ccccc3)c2c1,8.23
13,Cc1cc(NC(=O)CSc2nc3c(c(=O)n2C)SCC3)no1,15.2
14,Cc1ccc(C(C)NC(=O)c2ccco2)cc1 (centres unmarked),-5.21
15,COc1cc(OC)cc(-c2nnc(SCc3c(F)cccc3Cl)o2)c1,0.324
16,CCS(=O)(=O)N1CCC(C(=O)Oc2ccc(C)c(C)c2)CC1,15.8
17,CC12CCC(=O)N1C(C(=O)OCC(=O)Nc1cccc(Br)c1)CS2 (centres unmarked),6.89
18,O=C1/C(=C/c2ccccc2O)SC(=S)N1Cc1cccnc1,12.9
19,Cc1onc(NC(=O)CSCC(=O)O)c1Br,10.8
20,CCOc1ccc(-c2[nH]nc3c2C(c2cccnc2)C(C#N)=C(N)O3)cc1 (centres unmarked),-5.53
21,C=C1CCC[C@]2(C)C[C@H]3OC(=O)C(CNCCN(C)C)[C@H]3CC12 (some centres unmarked),0.81
22,CN(C)N1C(=O)/C(=C/c2ccco2)SC1=Nc1ccccc1,14
